Measurements from article PMC6919601, “Identification of Plasmodium dipeptidyl aminopeptidase allosteric inhibitors by high throughput screening” (PLoS ONE, 2019).
About 230 (0.21%) of roughly 110,000 compounds showed an effect of 50% or more. The list shows a part of the results.

Target: DPAP1 (Plasmodium falciparum, UniProt Q8IIJ9)
Experiment: primary screen, percent inhibition; read by cleavage of a fluorogenic dipeptide substrate; higher = more effect of the substance
Parameters: species or system P. falciparum D10 trophozoite lysates; single well
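Further: 30 min substrate incubation versus DMSO and 10 µM JCP410 controls.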

Sequence of DPAP1 (Q8IIJ9 whole entry, looked up): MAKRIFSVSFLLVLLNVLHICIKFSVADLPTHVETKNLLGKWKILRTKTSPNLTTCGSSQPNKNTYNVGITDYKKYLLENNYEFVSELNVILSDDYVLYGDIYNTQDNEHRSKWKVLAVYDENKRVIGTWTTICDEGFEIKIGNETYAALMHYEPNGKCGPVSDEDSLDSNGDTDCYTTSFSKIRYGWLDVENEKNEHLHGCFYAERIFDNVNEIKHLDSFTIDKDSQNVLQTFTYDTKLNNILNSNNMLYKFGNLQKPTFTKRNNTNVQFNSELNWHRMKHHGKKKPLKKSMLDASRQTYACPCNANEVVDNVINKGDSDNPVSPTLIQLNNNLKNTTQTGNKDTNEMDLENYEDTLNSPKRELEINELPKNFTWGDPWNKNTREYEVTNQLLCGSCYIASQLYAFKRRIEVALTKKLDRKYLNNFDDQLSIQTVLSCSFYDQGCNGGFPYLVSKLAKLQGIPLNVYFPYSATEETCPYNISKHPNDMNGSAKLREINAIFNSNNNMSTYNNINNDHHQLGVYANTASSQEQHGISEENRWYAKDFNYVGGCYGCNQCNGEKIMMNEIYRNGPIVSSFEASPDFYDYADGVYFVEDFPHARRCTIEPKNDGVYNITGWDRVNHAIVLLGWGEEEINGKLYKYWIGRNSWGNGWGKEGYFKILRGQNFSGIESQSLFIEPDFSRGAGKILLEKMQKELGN

SMILES | % Inhibition @ 10 uM
Cc1noc(/C=C/N(C)C)c1S(=O)(=O)N1CCC(C(=O)NC(C)(C)C)CC1 | -8.42%
Cc1cc(Br)cc2c1N(C)C(=O)C2=O | -6.46%
O=C1NC(=O)N(CCc2ccc(F)cc2)C(=O)/C1=C/c1c[nH]c2ccccc12 | 2.09%
COc1ccc(C2C3=C(O)CCCC3=Nc3ncnn32)c(OC)c1 (stereo not shown) | -1.62%
CSc1ccc(/C=C/C2=CC(C)(C)NC(S)=N2)cc1 | -3.39%
CC1=C(C(=O)N(C)C)C(c2ccccc2F)n2c(nc3ccccc32)N1 (stereo not shown) | 1.73%
Cc1oc(-c2ccc(Cl)cc2)nc1CN1CCC(C(=O)NCCCN(C)Cc2ccccc2)CC1 | 3.93%
CCC(=O)N1N=C2C3CCN(CC3)C2C1c1cc(C)cc(C)c1 (stereo not shown) | 1.64%
Cc1ccc(S(=O)(=O)N2CCC[C@H]2C(O)(c2ccccc2)c2ccccc2)cc1 | 2.02%
Cc1ccccc1N1CCN(c2ccc(NC(=O)C3CC=CCC3C(=O)O)cc2)CC1 (stereo not shown) | -1.61%
CNS(=O)(=O)c1cn(CC(=O)Nc2ncccc2C)cc1S(=O)(=O)NC | -0.696%
CC1(C)CC(=O)C2=C(C1)N(c1ccc(Cl)cc1)C(N)=C(C#N)C21C(=O)Nc2ccccc21 (stereo not shown) | 0.687%
COc1ccc(C(=O)Nc2cccc(Cl)c2)c(OC)c1 | 2.43%
COc1cc(NC(=O)c2cc3nc(-c4ccco4)cc(C(F)(F)Cl)n3n2)cc(OC)c1OC | -7.63%
Nc1ccc(S(=O)(=O)Nc2nc3ccccc3nc2Nc2ccc3ccccc3c2)cc1 | -0.0372%
CN(CCCNC(=O)Cn1ncc2c3ccccc3n(Cc3ccccc3)c2c1=O)C1CCCCC1 | -1.58%
COc1ccc(OC)c(NC(=O)c2ccc(Cl)c(Cl)c2)c1 | -2.65%
Cc1ccc(C(=O)NCC(=O)NCC(=O)O)cc1 | -1.1%
O=C(Nc1ccccc1)NC1CCCCC1 | 2.01%
Cc1ccc(CN(Cc2ccccc2)C(=S)NCC(=O)NC2CCCCC2)o1 | -0.406%
CCOc1ccc(/C=C2\SC(Nc3ccc(F)cc3)=NC2=O)cc1OC | -2.86%

SMILES | % Inhibition @ 10 uM
N#CC1(NC(=O)[C@H](Cc2c(F)cccc2F)NC(=O)c2ccc(-c3ccccc3Cl)[n+]([O-])c2)CCS(=O)(=O)CC1 | -5.2%
CC1(C)COC2(NC1=O)c1ccccc1-c1ccccc12 | 6.68%
COc1ccc(Cl)cc1NC(=O)CN(Cc1ccccc1)S(C)(=O)=O | 9.41%
O=C(Nc1cccc([N+](=O)[O-])c1)c1cccc(S(=O)(=O)NCc2ccccc2)c1 | -1.74%
CN(C)CCN(C(=O)Cc1ccccc1)c1nc2cc3c(cc2s1)OCCO3 | -1.41%
C=CCNc1nc(-c2ccc(C)cc2C)cs1 | -6.83%
O=C(CCCc1nnc2n3nc(-c4ccccc4)nc3c3ccccc3n12)NCCCN1CCCC1=O | 0.44%
CC(C)C1C(C#N)=C(N)Oc2c1c(=O)oc1ccccc21 (stereo not shown) | -4.03%
Cc1nn(C(C)C(=O)NCc2ccccn2)c(=O)c2nn(-c3ccccc3)c(C)c12 (stereo not shown) | -6.93%
COCCCNC(=O)c1sc2nc3n(c(=O)c2c1C)CCCCC3 | -2.88%
CCOc1ccccc1NC(=O)C1=C(C)NC(=O)NC1c1ccc(N(C)C)cc1 (stereo not shown) | 0.812%
Cc1ccc(-c2cc(C(F)(F)F)n3ncc(C(=O)NCc4c(C)nn(C)c4C)c3n2)cc1 | 2.32%
Clc1ccc(OCc2ccccc2)c(CNCC2CCCO2)c1 (stereo not shown) | -1.61%
CN(Cc1ccco1)S(=O)(=O)c1nnc(NC(=O)c2ccc(F)cc2)s1 | 1.68%
O=C(COc1ccc2ccccc2c1Br)NCC1CCCO1 (stereo not shown) | 2.32%
COc1ccc(-c2cc(C(F)(F)F)n3nc(C(=O)NCc4c(C)nn(C)c4C)c(Cl)c3n2)cc1 | 0.64%
COc1ccc(Nc2nc(C)cc(O)n2)cc1 | 0.215%
COc1cc(CN2CCN(c3cccc(C(F)(F)F)c3)CC2)cc(OC)c1O | -3.71%
Cc1nc(SCc2cc(=O)n3nc(C(C)C)sc3n2)n[nH]1 | 3.29%
CC1Oc2ccc(C(=O)CCC(=O)O)cc2NC1=O (stereo not shown) | -1.29%
CCOc1ccc(NS(=O)(=O)c2ccc(NC(=O)c3ccccc3Cl)cc2)cc1 | -2.83%

SMILES | % Inhibition @ 10 uM
CC1(C)CC2=Nc3ncnn3C(c3ccccc3)C2=C(O)C1 (stereo not shown) | -3.63%
CCCN(CCO)Cc1cccc(Cl)c1Cl | -8.55%
OC1(C(O)(c2ccccc2)c2ccccn2)CCCCC1 (stereo not shown) | 0.177%
CCCn1c(=O)c2sccc2n2c(CCCC(=O)N[C@@H](C)CC)nnc12 | 0.868%
Cn1c(=O)c2sccc2n2c(CCCC(=O)NCCN(Cc3ccco3)C3CCCC3)nnc12 | -1.59%
O=C(c1cccc2ccccc12)N1CCN(Cc2c[nH]c3ccccc23)CC1 | 0.147%
N=C(NOC(=O)Cc1ccccc1)c1ccccn1 | -1.25%
O=C(O)c1[nH]c2ccccc2c1CNCc1ccccc1 | -5.05%
COc1ccc(CN2C(=O)c3cccnc3C2=O)cc1S(=O)(=O)N1CCC(c2ccccc2)C1 (stereo not shown) | -8.24%
CC1CCC2=NN(C(=O)c3cccnc3)C(O)(C(F)(F)F)C2C1 (stereo not shown) | -2.22%
CC(C)CN(CCNCc1c(C(=O)O)n(Cc2ccccc2)c2ccccc12)CC(C)C | 3.54%
Cc1ccc(-n2nc3c(=O)n(CCCC(=O)NCC4CCCO4)nc(C)c3c2C)cc1 (stereo not shown) | -1.57%
CSCCC(C(=O)Nc1ccc(C)cc1C)N1C(=O)c2ccccc2C1=O (stereo not shown) | -0.0947%
Cn1nc(N)c2c(-c3ccccc3)c(C#N)c(N)nc21 | 0.795%
O=C(NCc1ccccc1)C1CCCN(C(=O)c2ccc(-n3ccc4ccccc43)s2)C1 (stereo not shown) | -0.127%
CC(=O)c1ccc(N2CCN(Cc3cccc(Cl)c3)CC2)cc1 | -3.04%
Cn1c2ccc(Br)cc2c2nnc(SCC(=O)NC3=NC(=O)CS3)nc21 | -2.87%
Cc1ccc(C)c(-c2csc(Nc3ccccc3)n2)c1 | 5.32%
Cn1c(=O)n2ncnc2c2c3c(sc21)CCCC3 | 0.0539%
